# Results reported in the supplement of paper PMC12217912.
# Some of the results follow. The full chains were built here from the parent and the listed change. Inactive controls read about 0.05.
# B1: TEV protease; numbered along this chain (parent)
# chain: MGESLFKGPRDYNPISSSICHLTNESDGHTTSLYGIGFGPFIITNKHLFRRNNGTLVVQSLHGVFKVKDTTTLQQHLVDGRDMIIIRMPKDFPPFPQKLKFREPQREERICLVTTNFQTKSMSSMVSDTSCTFPSGDGIFWKHWIQTKDGQCGSPLVSTRDGFIVGIHSASNFTNTNNYFTSVPKNFMELLTNQEAQQWVSGWRLNADSVLWGGHKVFMVKPEEPFQPVKEATQL
# Variants of: B1
# Assay: raw area under fraction-flipped curve 0-4 h after induction (AUC4h, not background-subtracted), DNA-recorder readout of cleavage of the substrate (dimensionless); higher = more cleavage of the substrate by the protease variant
# Conditions: temperature: 34 °C; time window: 0-4 h after rhamnose induction
# Protocol: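 In vivo DNA recorder in E. coli TOP10(DE3) ΔrhaA at 34 °C. Each TEVp single-site mutant (parent TEVp 0) is paired with a single-site variant of the 7-mer TEVs (canonical ENLYFQ|S). The substrate sits between flexible linkers in a Bxb1-sfGFP-TEVs-SsrA fusion, so cleavage stabilises Bxb1 and speeds flipping of a recombination array, read by NGS. The value is the raw area under the fraction-flipped curve over 0-4 h after rhamnose induction (AUC4h), with ≥20 reads per time point. It is not background-subtracted; inactive controls average about 0.047.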
# 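Note: Bxb1 expression induced with 0.2% (w/v) L-rhamnose at OD600 near 0.5, cultures sampled hourly, flipped fraction per protease–substrate barcode pair counted by paired-end Illumina sequencing.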
Variant,area with substrate ENAYFQS,area with substrate ENCYFQS,area with substrate ENEYFQS,area with substrate ENFYFQS,area with substrate ENGYFQS,area with substrate ENNYFQS,area with substrate ENQYFQS,area with substrate ENRYFQS,area with substrate ENYYFQS,area with substrate ENDYFQS,area with substrate ENHYFQS,area with substrate ENIYFQS,area with substrate ENMYFQS,area with substrate ENPYFQS,area with substrate ENSYFQS,area with substrate ENTYFQS,area with substrate ENVYFQS,area with substrate ENKYFQS,area with substrate ENWYFQS
L61S,0.0706,0.069,0.0617,0.0599,0.0643,0.0708,0.0598,0.0578,0.0644,,,,,,,,,,
G63C,0.0629,0.0713,0.0508,0.0561,,0.0945,,0.0548,0.0376,0.0557,0.0679,0.093,0.0566,0.0436,0.0659,0.0649,0.0803,,
G63V,0.0683,0.0472,0.0568,0.0526,0.0597,0.0515,0.0498,,0.0612,0.0768,0.0567,,0.101,0.0802,,0.0553,0.0687,0.0778,
V64S,0.079,,,0.0648,0.0355,,,,0.0836,0.06,,,,0.0558,0.0579,,,,
F65S,0.0593,0.0603,0.059,0.0636,0.0597,0.0599,0.039,0.0761,,0.0665,,,,0.0602,0.0667,,,0.064,0.0643
F65Y,0.0778,,,0.059,0.0543,,0.0626,0.0638,0.0613,,0.103,,0.0741,,0.0615,,0.0879,,
K66T,0.0665,0.0713,0.0589,,,,0.0559,0.0529,0.0479,0.0666,,0.0575,0.113,,0.0861,0.069,0.064,0.0646,
V67H,0.06,0.0716,0.0711,0.0333,0.0639,0.0622,0.0656,0.0629,,0.0663,0.0486,,,,0.0553,,0.0856,0.072,0.0578
K68N,0.0648,0.0674,0.0583,,,0.0609,0.0815,0.0721,,0.0661,0.0619,0.131,0.103,,0.0658,0.0581,0.0677,,0.0518
D69M,0.0524,,0.0677,0.0559,,0.0625,0.0532,0.0441,,0.0566,,0.0973,,,,,,0.0649,
T70V,0.076,0.0543,0.0677,0.0643,,,,0.0843,0.0627,,0.0538,0.0715,0.0756,0.0827,,0.0598,0.0733,,
T70Y,0.0688,0.0622,0.0675,0.0544,0.0658,0.0637,0.0561,0.0491,,0.0539,0.0646,0.0665,,0.0491,0.0665,0.0725,0.0464,,0.005
T71D,0.0511,,0.0603,0.0614,0.0649,0.0825,,,,0.0628,,,0.0551,,0.0644,0.0569,,0.0447,
T71H,0.0665,,,0.0528,,0.0611,0.0522,,,0.0585,,0.0879,,0.0444,,0.0523,,,
T71I,0.064,0.0855,0.065,0.0423,,,,,,0.0633,0.062,0.114,0.0421,,0.0661,0.0584,,0.0654,
